In publication PMC4016566:
These are yes or no findings as the source states them, for the method shown. For some of these results: In cells and extracts the contact can be indirect. Some binding calls cover weakened binding; strength is not graded here.

Chains of the proteins cited; added tags and fusions are not shown. Residues count along the entry.
UniProt Q15788: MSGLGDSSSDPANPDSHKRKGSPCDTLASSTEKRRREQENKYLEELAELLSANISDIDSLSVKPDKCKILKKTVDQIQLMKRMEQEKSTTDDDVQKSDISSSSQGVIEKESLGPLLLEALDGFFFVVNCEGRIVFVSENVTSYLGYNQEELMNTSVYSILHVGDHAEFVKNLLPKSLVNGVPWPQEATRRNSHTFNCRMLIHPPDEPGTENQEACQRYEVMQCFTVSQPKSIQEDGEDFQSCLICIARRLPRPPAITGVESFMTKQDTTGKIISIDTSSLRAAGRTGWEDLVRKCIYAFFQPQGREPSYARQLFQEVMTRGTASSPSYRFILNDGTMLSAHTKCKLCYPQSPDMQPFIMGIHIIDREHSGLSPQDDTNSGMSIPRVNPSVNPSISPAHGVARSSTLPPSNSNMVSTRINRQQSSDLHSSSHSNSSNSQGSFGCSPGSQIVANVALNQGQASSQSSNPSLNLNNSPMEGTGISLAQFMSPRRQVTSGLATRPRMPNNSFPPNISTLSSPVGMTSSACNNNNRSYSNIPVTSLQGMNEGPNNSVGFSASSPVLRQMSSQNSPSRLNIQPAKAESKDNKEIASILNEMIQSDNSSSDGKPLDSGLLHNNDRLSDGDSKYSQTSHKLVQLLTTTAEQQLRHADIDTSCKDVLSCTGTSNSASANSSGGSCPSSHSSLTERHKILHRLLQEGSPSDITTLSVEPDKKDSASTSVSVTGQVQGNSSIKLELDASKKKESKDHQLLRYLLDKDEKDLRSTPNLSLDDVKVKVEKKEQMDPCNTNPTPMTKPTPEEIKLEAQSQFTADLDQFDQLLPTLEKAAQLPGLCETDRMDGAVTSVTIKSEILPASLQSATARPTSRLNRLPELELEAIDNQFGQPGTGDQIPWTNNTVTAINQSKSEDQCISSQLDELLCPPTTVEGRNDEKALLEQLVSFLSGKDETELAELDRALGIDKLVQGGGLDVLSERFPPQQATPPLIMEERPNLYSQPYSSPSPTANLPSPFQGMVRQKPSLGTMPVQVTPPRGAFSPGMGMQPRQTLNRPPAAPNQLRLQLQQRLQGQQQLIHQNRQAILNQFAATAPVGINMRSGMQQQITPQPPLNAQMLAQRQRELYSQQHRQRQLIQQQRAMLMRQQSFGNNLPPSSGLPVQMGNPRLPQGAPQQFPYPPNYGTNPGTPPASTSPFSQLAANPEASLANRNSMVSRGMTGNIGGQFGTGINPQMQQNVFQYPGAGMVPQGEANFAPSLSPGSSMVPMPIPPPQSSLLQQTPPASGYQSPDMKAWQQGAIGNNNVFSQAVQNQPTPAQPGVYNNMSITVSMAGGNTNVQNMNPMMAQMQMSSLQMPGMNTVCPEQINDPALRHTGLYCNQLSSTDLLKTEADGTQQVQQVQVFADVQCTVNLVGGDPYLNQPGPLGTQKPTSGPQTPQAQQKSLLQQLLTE
UniProt P63165, residues 1-97: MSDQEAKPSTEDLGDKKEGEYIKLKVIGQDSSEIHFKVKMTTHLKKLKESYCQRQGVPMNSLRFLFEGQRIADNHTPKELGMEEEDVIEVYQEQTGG
UniProt P10275: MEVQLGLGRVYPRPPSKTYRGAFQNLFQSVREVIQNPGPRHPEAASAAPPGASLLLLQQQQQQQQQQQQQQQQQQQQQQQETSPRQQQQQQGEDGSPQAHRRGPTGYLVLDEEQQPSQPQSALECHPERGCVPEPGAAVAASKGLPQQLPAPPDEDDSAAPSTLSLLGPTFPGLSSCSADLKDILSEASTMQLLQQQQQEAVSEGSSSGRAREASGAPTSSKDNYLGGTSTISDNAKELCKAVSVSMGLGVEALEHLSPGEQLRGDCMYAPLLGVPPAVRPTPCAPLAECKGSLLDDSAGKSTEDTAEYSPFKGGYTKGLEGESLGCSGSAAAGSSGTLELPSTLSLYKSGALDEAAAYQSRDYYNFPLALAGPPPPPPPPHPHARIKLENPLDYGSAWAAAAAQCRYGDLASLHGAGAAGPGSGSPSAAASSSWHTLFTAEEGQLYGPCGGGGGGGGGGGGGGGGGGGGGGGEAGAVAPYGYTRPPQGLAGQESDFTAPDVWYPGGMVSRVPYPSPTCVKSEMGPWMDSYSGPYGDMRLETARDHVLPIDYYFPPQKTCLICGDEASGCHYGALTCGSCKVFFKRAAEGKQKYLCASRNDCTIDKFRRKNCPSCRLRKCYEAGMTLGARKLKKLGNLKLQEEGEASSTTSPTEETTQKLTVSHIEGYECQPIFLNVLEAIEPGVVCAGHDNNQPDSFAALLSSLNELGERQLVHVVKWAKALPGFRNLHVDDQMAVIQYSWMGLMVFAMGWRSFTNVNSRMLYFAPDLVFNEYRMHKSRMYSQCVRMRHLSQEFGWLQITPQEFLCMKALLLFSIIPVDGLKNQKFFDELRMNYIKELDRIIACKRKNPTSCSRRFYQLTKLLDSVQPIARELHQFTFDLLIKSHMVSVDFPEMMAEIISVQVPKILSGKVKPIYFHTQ
UniProt P03372: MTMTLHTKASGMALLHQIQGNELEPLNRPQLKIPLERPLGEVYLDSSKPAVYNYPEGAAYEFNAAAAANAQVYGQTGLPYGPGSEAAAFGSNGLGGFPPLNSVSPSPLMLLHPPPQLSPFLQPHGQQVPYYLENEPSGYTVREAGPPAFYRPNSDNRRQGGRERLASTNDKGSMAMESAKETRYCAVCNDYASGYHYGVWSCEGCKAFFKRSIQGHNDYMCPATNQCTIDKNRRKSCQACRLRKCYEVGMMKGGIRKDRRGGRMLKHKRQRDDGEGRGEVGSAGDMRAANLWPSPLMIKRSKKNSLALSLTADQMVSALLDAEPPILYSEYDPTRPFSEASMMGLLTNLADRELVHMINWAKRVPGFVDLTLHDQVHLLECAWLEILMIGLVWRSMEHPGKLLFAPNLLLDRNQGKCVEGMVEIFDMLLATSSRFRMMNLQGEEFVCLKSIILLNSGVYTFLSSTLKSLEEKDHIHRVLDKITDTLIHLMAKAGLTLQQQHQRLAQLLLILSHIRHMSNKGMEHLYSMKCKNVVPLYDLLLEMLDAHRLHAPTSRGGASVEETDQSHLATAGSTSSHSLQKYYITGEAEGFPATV

B1: retinoic acid receptor-related orphan receptor alpha (protein, UniProt P35398 1-523)
chain: MESAPAAPDPAASEPGSSGADAAAGSRETPLNQESARKSEPPAPVRRQSYSSTSRGISVTKKTHTSQIEIIPCKICGDKSSGIHYGVITCEGCKGFFRRSQQSNATYSCPRQKNCLIDRTSRNRCQHCRLQKCLAVGMSRDAVKFGRMSKKQRDSLYAEVQKHRMQQQQRDHQQQPGEAEPLTPTYNISANGLTELHDDLSNYIDGHTPEGSKADSAVSSFYLDIQPSPDQSGLDINGIKPEPICDYTPASGFFPYCSFTNGETSPTVSMAELEHLAQNISKSHLETCQYLREELQQITWQTFLQEEIENYQNKQREVMWQLCAIKITEAIQYVVEFAKRIDGFMELCQNDQIVLLKAGSLEVVFIRMCRAFDSQNNTVYFDGKYASPDVFKSLGCEDFISFVFEFGKSLCSMHLTEDEIALFSAFVLMSADRSWLQEKVKIEKLQQKIQLALQHVLQKNHREDGILTKLICKVSTLRALCGRHTEKLMAFKAIYPDIVRLHFPPLYKELFTSEFEPAMQIDG

Key:
[1] = biological target: T1, four and a half LIM domains 2 (human (endogenous in SH-SY5Y)) (UniProt Q14192); experiment: co-IP; SH-SY5Y whole-cell lysate incubated overnight at 4°C with Protein A/G magnetic beads cross-linked (disuccinimidyl suberate) to anti-NCOA1, anti-NCOA5, anti-SUMO1, anti-FHL2 or nonspecific IgG; western blot for AR (cells treated with 1 nM DHT, 2 h), ERα (1 nM E2, 2 h) or RORA
T1 sequence: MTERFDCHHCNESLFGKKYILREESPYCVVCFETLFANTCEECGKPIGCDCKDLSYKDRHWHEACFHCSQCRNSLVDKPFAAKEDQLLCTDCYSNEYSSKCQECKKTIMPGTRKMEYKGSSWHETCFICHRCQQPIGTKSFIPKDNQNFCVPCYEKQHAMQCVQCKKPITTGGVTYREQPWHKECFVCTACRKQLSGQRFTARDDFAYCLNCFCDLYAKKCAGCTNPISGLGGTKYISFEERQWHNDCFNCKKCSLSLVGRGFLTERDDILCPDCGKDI

[2] = biological target: nuclear receptor coactivator 1 (human (endogenous in SH-SY5Y)) (UniProt Q15788); experiment: as above
[3] = biological target: T2, nuclear receptor coactivator 5 (human (endogenous in SH-SY5Y)) (UniProt Q9HCD5); experiment: as above
T2 sequence: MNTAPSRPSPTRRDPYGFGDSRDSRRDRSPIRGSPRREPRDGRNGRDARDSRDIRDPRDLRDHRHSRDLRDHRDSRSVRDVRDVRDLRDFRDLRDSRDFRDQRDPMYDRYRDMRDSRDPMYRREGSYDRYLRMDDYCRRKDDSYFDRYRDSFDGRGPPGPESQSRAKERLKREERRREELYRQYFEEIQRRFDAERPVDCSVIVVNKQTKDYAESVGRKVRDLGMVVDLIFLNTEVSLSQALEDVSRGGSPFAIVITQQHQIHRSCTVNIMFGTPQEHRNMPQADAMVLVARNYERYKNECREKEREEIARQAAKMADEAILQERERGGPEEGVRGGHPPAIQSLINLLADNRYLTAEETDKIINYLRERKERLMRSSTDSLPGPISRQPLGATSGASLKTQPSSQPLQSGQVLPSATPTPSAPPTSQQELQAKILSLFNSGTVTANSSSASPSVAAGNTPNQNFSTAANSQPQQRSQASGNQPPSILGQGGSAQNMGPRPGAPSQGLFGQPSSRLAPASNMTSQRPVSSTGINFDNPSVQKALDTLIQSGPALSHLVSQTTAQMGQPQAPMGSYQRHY

[4] = biological target: T1, four and a half LIM domains 2 (human (endogenous in SH-SY5Y)); experiment: sequential chromatin immunoprecipitation (ChIP-reChIP); formaldehyde-fixed, enzymatically sheared SH-SY5Y chromatin (150 to 1,000 bp); first IP with anti-AR (1 nM DHT), anti-ERα (1 nM E2) or anti-RORA, second IP with anti-NCOA1, anti-NCOA5, anti-SUMO1 or anti-FHL2; qPCR or PCR of receptor binding sites in the RORA or CYP19A1 promoter
[5] = biological target: T2, nuclear receptor coactivator 5 (human (endogenous in SH-SY5Y)); experiment: as above
[6] = biological target: SUMO1 (SMT3 suppressor of mif two 3 homolog 1) (human (endogenous in SH-SY5Y)) (UniProt P63165); experiment: co-IP; SH-SY5Y whole-cell lysate incubated overnight at 4°C with Protein A/G magnetic beads cross-linked (disuccinimidyl suberate) to anti-NCOA1, anti-NCOA5, anti-SUMO1, anti-FHL2 or nonspecific IgG; western blot for AR (cells treated with 1 nM DHT, 2 h), ERα (1 nM E2, 2 h) or RORA
[7] = biological target: T1, four and a half LIM domains 2 (human (endogenous in SH-SY5Y)); experiment: as above; remark: listed apart in the source
[8] = biological target: T2, nuclear receptor coactivator 5 (human (endogenous in SH-SY5Y)); experiment: as above; remark: listed apart in the source
[9] = biological target: SUMO1 (SMT3 suppressor of mif two 3 homolog 1) (human (endogenous in SH-SY5Y)) (UniProt P63165); experiment: sequential chromatin immunoprecipitation (ChIP-reChIP); formaldehyde-fixed, enzymatically sheared SH-SY5Y chromatin (150 to 1,000 bp); first IP with anti-AR (1 nM DHT), anti-ERα (1 nM E2) or anti-RORA, second IP with anti-NCOA1, anti-NCOA5, anti-SUMO1 or anti-FHL2; qPCR or PCR of receptor binding sites in the RORA or CYP19A1 promoter
[10] = biological target: T1, four and a half LIM domains 2 (human (endogenous in SH-SY5Y)); experiment: as above; remark: listed apart in the source
[11] = biological target: T2, nuclear receptor coactivator 5 (human (endogenous in SH-SY5Y)); experiment: as above; remark: listed apart in the source

Molecule | binding [1] | binding [2] | binding [3] | binding [4] | binding [5] | binding [6] | binding [7] | binding [8] | binding [9] | binding [10] | binding [11]
androgen receptor (from UniProt P10275 1-920) | binds weakly | binds | binds | – | – | – | – | – | – | – | –
estrogen receptor alpha (from UniProt P03372 1-595) | binds | – | binds | binds | binds | – | – | – | – | – | –
B1 | – | – | – | – | – | no binding | no binding | binds | no binding | no binding | binds
